Test results from PubChem BioAssay AID1745845 (National Center for Advancing Translational Sciences (NCATS), 2022).
Values joined by “and” are separate entries in the source; they are usually repeats but may differ in a detail not shown here. Identical values can stand only once. The campaign covered roughly 360,000 compounds. About 2,600 (0.72%) were called active. The inconclusive results got no clear call from the source; some entries with a clear call stand among them for comparison. The call rests on the fitted dose curve; in most records, active means well fitted inhibition curve with a large enough effect; inconclusive means small, poorly fitted or top-dose-only effect; inactive means no such curve, though single readings can be large or run the other way. Where the call is inconclusive, the potency comes from a doubtful curve fit. Some compounds were tested as several samples or in several runs, with calls that do not always agree.

Test: Primary qHTS for Inhibitors of ATXN expression; further: nearly all actives have a fitted effect of over 55% in size
Conditions: HEK-293 ATXN2-luciferase reporter, luminescence, 24 h; activity change, negative = inhibition: at 57 µM (top of the series)
Procedure, shortened: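 ATXN2-luciferase reporter cells (luciferase flanked by upstream and downstream ATXN2 gene portions) were treated 24 h at 37 °C with compounds at up to 57 uM. SteadyGlo luminescence gave expression; GF-AFC fluorescence gave viability.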
On the % scale 0 is the no-effect control and ±100 the full control effect; potency means the concentration at half of the fitted maximal effect; tags describe the fitted curve by direction and shape.

SMILES	activity change, negative = inhibition	Potency
O=S(=O)(c1ccc(Br)s1)N1CCN(c2ncccn2)CC1	inactive: -13.8%	–
CCOC(=O)c1c(-c2ccccc2)oc2cc(Br)c(O)c(C=O)c12	–	inconclusive: 28.2 µM [inhibitor, single point]
CN(CCN1CCOCC1)Cc1nc(-c2cccs2)no1	inactive: -6.7%	–
Cc1ccccc1CC1(CO)CCCN(C(=O)c2ccccc2N(C)C)C1 (stereo not given)	inconclusive: -41.5% [inhibitor]	–
CCCCc1nc2cc(C=CC(=O)NO)ccc2n1CCN(CC)CC	inactive: 113%	–
Cc1cccnc1C(NC(=O)C1CCN(Cc2ccc(Oc3ccccc3)cc2)CC1)c1ccc(F)cc1 (stereo not given)	–	inconclusive: 28.2 µM [inhibitor, single point]
CC(C)(C)C(=O)Nc1cc(S(=O)(=O)Nc2ccc(Cl)cc2)ccc1Cl	inactive: -22.9%	–
CCOC(=O)C(=Cc1cc(=O)c(OC)co1)C(=O)OCC	–	inconclusive: 39.8 µM [inhibitor, single point]
Cc1ccc(S(=O)(=O)CC(C)N2CCOCC2)c(S(=O)(=O)CC(C)N2CCOCC2)c1 (stereo not given)	inactive: -2.65%	–
CNC(=O)c1c(NC(=O)Cc2coc3ccc(OC)cc23)sc2c1CCCC2	inactive: 4.45%	–
Oc1ccccc1C1SC(c2ccccc2O)SC(c2ccccc2O)S1 (stereo not given)	–	active: 20 µM
c1ccc2c(c1)C(=NC1CCCCC1)NC2=NC1CCCCC1	–	active: 28.2 µM
CSc1ccccc1NC(=O)C(=O)c1c[nH]c2ccccc12	inactive: 24.2%	–
CCCCCn1c(=O)[nH]c2cc(C(=O)N3CCN(Cc4ccc5c(c4)OCO5)CC3)ccc2c1=O	–	inconclusive: 15.8 µM [inhibitor, partial curve, poor fit]
O=C(c1cc2ccc3cccnc3c2[nH]1)N1CCN(c2cccc(Cl)c2)CC1	–	inconclusive: 39.8 µM [inhibitor, single point]
O=C1CN(C(=O)COC(=O)C2CCN(S(=O)(=O)c3ccccc3C(F)(F)F)CC2)c2ccccc2N1	inactive: -12.2%	–
CC1=CC(C)(C)N(C(=O)CNC2CCCCC2)c2cc(C)ccc21	–	inconclusive: 23.8 µM [inhibitor, partial curve]
Cc1ccc(SCCCCN2CCNCC2)cc1	inactive: 1.62%	–
O=c1oc2ccccc2cc1-c1nc(-c2cccs2)no1	inactive: 38%	–
NC(=O)CC(NC(=O)Cc1ccc(Cl)cc1)c1ccc(N2CCC(Cc3ccccc3)CC2)c([N+](=O)[O-])c1 (stereo not given)	–	inconclusive: 35.5 µM [inhibitor, partial curve, poor fit]
CC1=CC(=O)C=CC1=Nc1ccc(N(C)C)cc1	–	inconclusive: 20 µM [inhibitor, single point]
CC(C)C(=O)N1CCC1(C)C(=O)NCc1cc(Cl)ccc1F (stereo not given)	inactive: -2.38%	–
CCCCCCn1ccc(=N)cc1	–	inconclusive: 10 µM [inhibitor, partial curve]
O=C(N/N=C/c1ccc([N+](=O)[O-])o1)C(O)c1ccccc1 (stereo not given)	–	inconclusive: 2.99 µM [inhibitor, partial curve, poor fit]

SMILES	activity change, negative = inhibition	Potency
NNc1nc2sc3c(c2c(=O)n1-c1ccccc1)CCCC3	–	inconclusive: 28.2 µM [inhibitor, single point]
CCOC(=O)C1=C(C)NC(C)=C(C(=O)OCC)C1c1ccc([N+](=O)[O-])s1	–	inconclusive: 25.1 µM [inhibitor, partial curve, poor fit]
Nc1ccn([C@@H]2O[C@H](CO)[C@@H](O)[C@H]2O)c(=O)n1	–	inconclusive: 15.3 µM [inhibitor, partial curve, poor fit]
COc1ccc(C(=O)Cn2c(C(=O)/C=C/c3ccccc3)nc3ccccc32)cc1	–	active: 22.4 µM
C=CCN1C(=O)C(CC(=O)Nc2ccc(OCCC)cc2)N(CCCN2CCN(Cc3ccccc3)CC2)C1=S (stereo not given)	–	inconclusive: 37.7 µM [inhibitor, single point]
O=C(COC(=O)c1cccnc1Nc1cccc(C(F)(F)F)c1)NCc1ccc2c(c1)OCO2	–	inconclusive: 25.1 µM [inhibitor, partial curve, poor fit]
COc1cccc2cc(-c3cc(=O)oc4cc(C)c(OCC(C)=O)cc34)oc12	inactive: -3.13%	–
CCc1cc(OCCCCNCc2ccccc2)ccc1Cl	inactive: -31.7%	–
COC(=O)c1ccc2nc(-c3ccc(OC)c(OC)c3)c(Cc3ccccc3OC)n2c1	inactive: -8.5%	–
Cc1ccccc1NC(=O)c1cnc2ccccn2c1=O	–	inconclusive: 8.91 µM [inhibitor, partial curve, poor fit]
COc1ccc(CCNc2ncnc3onc(C)c23)c(OC)c1	–	inconclusive: 1.41 µM [inhibitor, partial curve, poor fit]
Cc1cccc(-c2nc(CN3CCCC(C(=O)NC4CCCCC4)C3)c(C)o2)c1 (stereo not given)	inactive: -8.18%	–
CC1(C)CC(=O)c2c(C(F)(F)F)nn(-c3ccc(C(N)=O)c(NC4CCC(O)CC4)c3)c2C1 (stereo not given)	–	active: 0.0968 µM
CCOC(=O)c1cnc2ccc(OCC)cc2c1Nc1ccc(OCc2ccccc2Cl)cc1	inactive: -9.56%	–
Cc1c(O)cccc1C(=O)N[C@@H](CSc1ccccc1)[C@H](O)CN1C[C@H]2CCCC[C@H]2C[C@H]1C(=O)NC(C)(C)C	–	active: 20 µM and inconclusive: 35.5 µM [inhibitor, single point]
OC1(c2ccc(Cl)c(Cl)c2)C[n+]2ccccc2N1Cc1ccccc1 (stereo not given)	–	active: 35.5 µM
Cc1[nH]c2ccc(Br)cc2c(=O)c1CN1CCOCC1	inactive: -4.17%	–
COc1ccc(CCNC(=O)c2coc(=O)c(Br)c2)cc1	–	inconclusive: 39.8 µM [inhibitor, single point]
COC(=O)C1=C(C)N(Cc2ccccc2)C(=S)N[C@H]1c1ccccc1	inactive: -18%	–
O=C(/C=C/c1cccs1)c1cc(Br)ccc1OC(=O)N1CCOCC1	–	inconclusive: 17.8 µM [inhibitor, partial curve, poor fit]
CC1=NC(=O)C(N=Nc2cccc(C(=O)O)c2)N1c1ccccc1 (stereo not given)	–	active: 8.91 µM
CC(=O)Nc1ccc(S(=O)(=O)NC2CC2)cc1	inactive: -9.48%	–
c1ccc(-c2nc(NCC3CC3)nc3ccsc23)cc1	inactive: 6.77%	–
CC(C)Oc1ccc(F)cc1-c1cc(C(=O)NCc2cc(C(F)(F)F)cc(C(F)(F)F)c2)[nH]n1	inactive: 0%	–

SMILES	activity change, negative = inhibition	Potency
Cc1c(CN2CCC(CO)(Cc3cccc(C(F)(F)F)c3)CC2)c2ccccc2n1C	–	active: 35.5 µM
O=Nc1ccc(NOC(=O)c2ccccc2Br)cc1	inactive: 7.75%	–
NC(=O)CC(NC(=O)Cc1cccc2ccccc12)c1ccc(N2CCc3ccccc3C2)c([N+](=O)[O-])c1 (stereo not given)	–	inconclusive: 39.8 µM [inhibitor, single point]
CC(C)(C)NC(=O)CSc1nsc(SCC(=O)NC(C)(C)C)c1C#N	inactive: 5%	–
C=CCn1cc(CN2CCC(C(=O)Nc3cccc(-c4cccc(F)c4)c3)CC2)c(C)n1	–	inconclusive: 39.8 µM [inhibitor, partial curve, poor fit]
Cc1ccc(NC(=O)c2ccc([N+](=O)[O-])o2)cc1S(=O)(=O)N1CCOCC1	–	inconclusive: 22.4 µM [inhibitor, single point]
CCCCn1c(SCC(=O)N2CCN(c3ccccc3)CC2)nc2ccsc2c1=O	–	inconclusive: 14.1 µM [inhibitor, partial curve]
O=C1CSC(=S)N1Cc1cccnc1	–	inconclusive: 31.6 µM [inhibitor, single point]
O=C(C1CC2CCC1C2)N1CCN(Cc2ccc3c(c2)OCO3)CC1 (stereo not given)	inactive: -1.12%	–
CC1(C)OC(c2ccccc2)=C/C(=C\C=N\NC(=O)c2ccncc2)O1	–	inconclusive: 25.1 µM [inhibitor, single point]
O=C(NC(c1ccc(-c2ccccc2)cc1)c1cnccn1)C1CCN(Cc2ccc(Oc3ccccc3)cc2)CC1 (stereo not given)	–	inconclusive: 39.8 µM [inhibitor, single point]
CC[C@@H]1C(c2cccc(Cl)c2)=NN(c2ccc(Br)cc2)[C@H]1C(=O)N1CCOC1=O	–	inconclusive: 35.5 µM [inhibitor, single point]
COc1ccc(OCc2cccc(C(=O)N3CCCC3)c2)cc1	–	inconclusive: 15.8 µM [inhibitor, single point]
Nc1c(C(=O)c2ccccc2)sc(Nc2ccc(Cl)c(Cl)c2)c1C(=O)Nc1ccccc1	–	inconclusive: 39.8 µM [inhibitor, single point]
Cc1cccc(COC[C@H](CC(C)C)N2CCN(C(=O)c3ccc(C(C)(C)C)cc3)CCC2=O)c1	–	inconclusive: 39.8 µM [inhibitor, single point]
FC(F)(F)c1nc(-c2ccccc2)ncc1-c1nnnn1-c1ccccc1	–	inconclusive: 28.2 µM [inhibitor, single point]
O=c1cc(CN2CCOCC2)occ1OCCCCCSc1ccnc2cc(C(F)(F)F)ccc12	–	inconclusive: 8.63 µM [inhibitor, partial curve]
O=C(C1CCN(c2ncnc3c2sc2cccc(F)c23)CC1)N1CCOCC1	–	inconclusive: 14.1 µM [inhibitor, partial curve]
CCc1ccc(C(O)c2ncc(-c3ccc4ccccc4c3)[nH]2)cc1 (stereo not given)	inactive: 7.96%	–
CCOC(=O)N1CCN(C(=O)Cn2ncc3c4ccccc4n(Cc4ccc(F)cc4)c3c2=O)CC1	–	inconclusive: 25.1 µM [inhibitor, single point]
CN(C(=O)c1cccc(NC(=O)Cc2ccc(NC(=O)C3CCCN(C(=O)CCc4ccccc4)C3)cc2)c1)C1CCC1 (stereo not given)	–	inconclusive: 17.8 µM [inhibitor, partial curve]
COc1ccc(CN2CCN(c3ncnc4scc(-c5ccc(F)cc5)c34)CC2)cc1	–	inconclusive: 42.3 µM [inhibitor, partial curve, poor fit]
